Laboratory results published in article PMC11995724, “Antibiotic target discovery by integrated phenotypic and activity-based profiling of electrophilic fragments” (Cell chemical biology, 2025).
About 75 (2%) of roughly 3,200 compounds showed an effect of 50% or more. This is one part of the list.

System: T1, S. aureus MSSA476
T1 construct: MSSA476
Set-up: species or system S. aureus MSSA476 (TSB) or V. cholerae SAD30 (LB); 384-well bacterial growth screen at 25 uM, OD600 relative to DMSO control
Details: relative growth, OD600, TSB; 25 µM; inhibitor

Row | SMILES | % of control remaining [%]
1 | CC1CN(C(=O)C(C#N)=Cc2ccc(OC(F)F)cc2)CC(C)O1 (centres unmarked) [8-G05, 3-[4-(difluoromethoxy)phenyl]-2-(2,6-dimethylmorpholine-4-carbonyl)prop-2-enenitrile] | 108.216
2 | O=C(CCl)N(CC=Cc1ccccc1)c1ccc2c(c1)OCCO2 [4-G19, 2-chloro-N-(2,3-dihydro-1,4-benzodioxin-6-yl)-N-(3-phenylprop-2-en-1-yl)acetamide] | 103.287
3 | C=CC(=O)NCC1CCc2cccnc21 (centres unmarked) [3-M07, N-({5H,6H,7H-cyclopenta[b]pyridin-7-yl}methyl)prop-2-enamide] | 96.1254
4 | Cc1nc(C#N)c(N2CCN(C(=O)CCl)CC2)o1 [5-L18, 5-[4-(2-chloroacetyl)piperazin-1-yl]-2-methyl-1,3-oxazole-4-carbonitrile] | 84.8816
5 | N#CC(=Cc1ccc2ccccc2c1)C(=O)NCc1ccccc1 [9-N11, N-benzyl-2-cyano-3-(naphthalen-2-yl)prop-2-enamide] | 104.27
6 | C=CC(=O)N1CCC(C(=O)N2CCOc3cc(F)ccc3C2)CC1 [3-E06, 1-[4-(8-fluoro-2,3,4,5-tetrahydro-1,4-benzoxazepine-4-carbonyl)piperidin-1-yl]prop-2-en-1-one] | 97.1702
7 | O=C(CCl)NCC1(c2ccc(F)cc2)CCCC1 [6-E18, 2-chloro-N-{[1-(4-fluorophenyl)cyclopentyl]methyl}acetamide] | 85.7073
8 | CC1CN(C(=O)c2ccc(NC(=O)C(C)Cl)cc2)CC(C)O1 (centres unmarked) [7-E22, 2-chloro-N-[4-(2,6-dimethylmorpholine-4-carbonyl)phenyl]propanamide] | 77.237
9 | O=C(CCl)N(Cc1ccccc1)Cc1ccc(F)cc1 [5-I06, N-benzyl-2-chloro-N-[(4-fluorophenyl)methyl]acetamide] | 104.554
10 | CC(c1cccc(NC(=O)c2ccccc2)c1)N(C)C(=O)CCl (centres unmarked) [6-M22, N-{3-[1-(2-chloro-N-methylacetamido)ethyl]phenyl}benzamide] | 92.5366
11 | CC(Cl)C(=O)NCCS(=O)(=O)c1cccs1 (centres unmarked) [6-N15, 2-chloro-N-[2-(thiophene-2-sulfonyl)ethyl]propanamide] | 91.5122
12 | C=CC(=O)NCc1nnc(C(F)(F)F)s1 [1-O14, N-{[5-(trifluoromethyl)-1,3,4-thiadiazol-2-yl]methyl}prop-2-enamide] | 112.879
13 | COc1ccc(C(=O)C(C)Cl)c(OC)c1 (centres unmarked) [10-J17, 2-chloro-1-(2,4-dimethoxyphenyl)propan-1-one] | 124.688
14 | C=CC(=O)NCC1(C)CCC(C)(C)CC1 [1-F22, N-[(1,4,4-trimethylcyclohexyl)methyl]prop-2-enamide] | 112.527
15 | COc1ccc(C=C(C#N)C(=O)Nc2ccc3c(c2)OCCO3)cc1O [8-H19, 2-cyano-N-(2,3-dihydro-1,4-benzodioxin-6-yl)-3-(3-hydroxy-4-methoxyphenyl)prop-2-enamide] | 102.905
16 | O=C(CCl)Nc1c(Cl)cc(Cl)cc1Cl [5-B16, 2-chloro-N-(2,4,6-trichlorophenyl)acetamide] | 90.7104
17 | C=CC(=O)NC1CCc2nc(CC)nn2C1 (centres unmarked) [1-G22, N-{2-ethyl-5H,6H,7H,8H-[1,2,4]triazolo[1,5-a]pyridin-6-yl}prop-2-enamide] | 95.6484
18 | C=CC(=O)NCc1nc2ccccc2n1C1CC1 [2-N03, N-[(1-cyclopropyl-1H-1,3-benzodiazol-2-yl)methyl]prop-2-enamide] | 88.7728
19 | C=CC(=O)N(Cc1c(F)cc(C)cc1Cl)C1CCCOCC1 (centres unmarked) [2-A13, N-[(2-chloro-6-fluoro-4-methylphenyl)methyl]-N-(oxepan-4-yl)prop-2-enamide] | 130.2
20 | CC(Cl)C(=O)N1CCC(Oc2cnc3ccccc3n2)CC1 (centres unmarked) [7-I18, 2-chloro-1-[4-(quinoxalin-2-yloxy)piperidin-1-yl]propan-1-one] | 105.181
21 | N#CC(=Cc1ccsc1)C(=O)Nc1ccc(Cl)cc1 [9-I06, N-(4-chlorophenyl)-2-cyano-3-(thiophen-3-yl)prop-2-enamide] | 81.1985
22 | O=C(CCl)c1ccc(NC(=O)c2ccccc2)cc1 [10-B06, N-[4-(2-chloroacetyl)phenyl]benzamide] | 0
23 | O=C1C=CC(=O)N1c1cccc([N+](=O)[O-])c1 [10-P15, 1-(3-nitrophenyl)-2,5-dihydro-1H-pyrrole-2,5-dione] | 114.063
24 | C=CC(=O)NC[C@@H]1C[C@H](F)CN1Cc1csc(C)n1 [2-I09, N-{[(2S,4S)-4-fluoro-1-[(2-methyl-1,3-thiazol-4-yl)methyl]pyrrolidin-2-yl]methyl}prop-2-enamide] | 106.527
25 | C=CC(=O)N1CCC(C(=O)N2CCOC(c3cccc(F)c3)C2)CC1 (centres unmarked) [2-L14, 1-{4-[2-(3-fluorophenyl)morpholine-4-carbonyl]piperidin-1-yl}prop-2-en-1-one] | 95.7354
26 | C=CC(=O)Nc1ccc(S(C)(=O)=O)cc1OCC [2-C08, N-(2-ethoxy-4-methanesulfonylphenyl)prop-2-enamide] | 116.275
27 | CC(Cl)C(=O)N(C)CCn1c(=O)oc2ccccc21 (centres unmarked) [7-H15, 2-chloro-N-methyl-N-[2-(2-oxo-2,3-dihydro-1,3-benzoxazol-3-yl)ethyl]propanamide] | 92.6217
28 | C=CC(=O)N(Cc1cc(-c2ccco2)n(C)n1)C1CCCCC1 [1-J15, N-cyclohexyl-N-{[5-(furan-2-yl)-1-methyl-1H-pyrazol-3-yl]methyl}prop-2-enamide] | 104.44
29 | C[C@@H](NC(=O)CCl)c1cnnn1C [7-F16, 2-chloro-N-[(1R)-1-(1-methyl-1H-1,2,3-triazol-5-yl)ethyl]acetamide] | 96.7033
